Measurements as given in publication PMC12040169 (PLOS Biology, 2025).
This is one part of the list.

tested on: T1, C. trachomatis L2/434/Bu expressing GFP (CTL2-GFP); design: species or system HeLa; C. trachomatis total inclusion area by high-content imaging, normalised to DMSO; settings: total inclusion area; 28.5 h, 10 µM; inhibitor
T1 construct: L2/434/Bu GFP intracellular growth in HeLa cells
Method in brief: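 Post-fluorescence-read fixation, DNA staining with Hoechst and high-content imaging; GFP inclusion area and number per well, and nuclei counts, used as proxies for bacterial growth and host viability.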

Row | SMILES | % of control remaining
1 | COc1ccc(C(=O)NC2CCCNC2=O)s1 (stereo not drawn) [CBK282938] | 106.451
2 | O=C(NCC1(O)CCSC1)c1c[nH]nc1-c1cc2ccccc2o1 (stereo not drawn) [CBK306159] | 94.4426
3 | CC(=O)c1ccc(-c2ccc(/C=C\c3[nH]c(=O)[nH]c(=O)c3[N+](=O)[O-])o2)cc1 [CBK267038] | 101.507
4 | O=C1Nc2ccc(-c3ccc(Cl)cc3)cc2C(=O)N2CCN(C(=O)c3cccnc3)C[C@H]12 [CBK289590] | 98.9105
5 | O=c1[nH]c(=O)c2cc(S(=O)(=O)Nc3cccc(CCc4ccccn4)c3)ccc2[nH]1 [CBK286389] | 96.7683
6 | CC1=C(C)CC(C(=O)Nc2sc3c(c2C(=O)OC(C)C)CCCC3)C(C(=O)O)C1 (stereo not drawn) [CBK265428] | 82.7711
7 | O=C(C1CC1)N1CC2CCCC(C1)C2(O)c1cccnc1F (stereo not drawn) [CBK282889] | 72.1125
8 | Nn1cnnc1SC1CCCCC1NS(=O)(=O)c1ccccc1 (stereo not drawn) [CBK266361] | 124.262
9 | Cc1cc(-c2cc(C(=O)NN3CCN(C)CC3)c3cc(Cl)ccc3n2)c(C)s1 [CBK267738] | 106.126
10 | Cc1cc([N+](=O)[O-])cc2c1NC(=O)C2(O)N1CCOCC1 (stereo not drawn) [CBK262475] | 91.8531
11 | OCCNc1cncc(-c2ccc3c(c2)OCO3)n1 [CBK065979] | 58.8937
12 | Cc1nnc(CCNC2CCN(c3ncnc4c(C)csc34)CC2)s1 [CBK307574] | 64.2501
13 | NNC(=O)CCc1ccccc1O [CBK261214] | 109.081
14 | O=C(O)CN(c1ccc2c(c1)OCCO2)S(=O)(=O)c1ccccc1 [CBK268017] | 103.313
15 | CN1CCC2(CC1)CC(NC(=O)C1CCCCC1)c1ccccc1O2 (stereo not drawn) [CBK282635] | 98.2606
16 | Cc1nn(CC(=O)N2CCCC2)c(=O)c2cc3sccc3n12 [CBK284024] | 93.8519
17 | Cc1nn(-c2ccccn2)c(N)c1C1CC(=O)N(c2ccc(C(=O)O)cc2)C1=O (stereo not drawn) [CBK291180] | 119.852
18 | CN(C)/C=N/c1ncc2ncn(C3CC(O)C(CO)O3)c2n1 (stereo not drawn) [CBK201175] | 96.0736
19 | CCCN(C(=O)c1coc(COc2ccc3sc(C)nc3c2)n1)C1CC1 [CBK306878] | 80.8882
20 | Cc1cc(OCC(=O)O/N=C(\N)Cc2ccc([N+](=O)[O-])cc2)ccc1Cl [CBK264322] | 82.6756
21 | O=C(N/N=C\c1cccc(O)c1)C(=O)N/N=C/c1cccc(O)c1 [CBK261962] | 119.024
22 | CC(C)N1CCN(c2nccnc2Cl)CC1 [CBK028901] | 127.614
23 | CC(=O)c1ccc(-c2ccc(C(=O)NCC3COc4ccccc4O3)c(N(C)C(C)=O)n2)s1 (stereo not drawn) [CBK076637] | 104.676
24 | Nc1ccn([C@@H]2O[C@H](CO)[C@H](O)C2O)c(=S)n1 (stereo partly drawn) [CBK201293] | 88.6685
25 | COc1cccc(NC(=O)CCS(=O)(=O)c2cccs2)c1 [CBK071069] | 86.9881
26 | CCC(=O)Nc1sc2c(c1-c1nc3ccccc3s1)CCCC2 [CBK287324] | 99.1348

Row | SMILES | % of control remaining
27 | COc1cc(C(c2c[nH]c3ccccc23)c2c[nH]c3ccccc23)c(Br)cc1OC(C)=O [CBK266051] | 58.383
28 | Nc1ccc(S(=O)(=O)NC2(C(F)(F)F)NC(=O)N(c3ccccc3Cl)C2=O)cc1 (stereo not drawn) [CBK268003] | 92.4933
29 | Cc1c(Br)c(C(F)(F)F)nn1CC(=O)NCCN1CCOCC1 [CBK018700] | 59.6135
30 | CCCOc1ccc(OC(=O)COc2ccccc2)cc1 [CBK160853] | 82.379
31 | Cc1[nH]c(=O)[nH]c(=O)c1Cc1cccc2ccccc12 [CBK111494] | 84.5087
32 | Cn1cc(C2CCCCCN2C(=O)c2cc(C3CC3)on2)cn1 (stereo not drawn) [CBK285301] | 90.6259
33 | O=C1C2C3C=CC(C2C(=O)N1CCO)C1C2C(=O)N(CCO)C(=O)C2C31 (stereo not drawn) [CBK263016] | 87.176
34 | O=C(Nc1cccnc1)N1CCN(c2ccccc2)CC1 [CBK145043] | 110.125
35 | O=C(Cc1ccccc1)Nc1nnc(C2=COCCO2)o1 [CBK287416] | 92.2471
36 | CCc1cc(Br)ccc1S(=O)(=O)Nc1ccccc1O [CBK043877] | 57.1404
37 | Cc1c(Cl)cccc1S(=O)(=O)Nc1nccnc1C(=O)O [CBK024795] | 110.282
38 | CCCC/C=C/c1cccc(Nc2cccnc2)n1 [CBK037645] | 136.816
39 | O=C(NCc1cccs1)C1(Cc2ccc(-c3ccc(F)c(F)c3)cc2)CCOCC1 [CBK285533] | 74.6908
40 | COc1ccccc1C(=O)Nc1sc2c(c1C#N)CC(C)(C)NC2(C)C [CBK307233] | 62.3087
41 | COc1cccc(Cc2cccc(C3CCN(C(=O)Cc4c[nH]c5ccccc45)CC3)n2)c1 [CBK286145] | 61.6963
42 | COc1ccc(S(=O)(=O)n2ccn(-c3ccc(Oc4ccccc4)cc3)c2=O)cc1OC [CBK106649] | 105.475
43 | CS(=O)(=O)N1CCN(c2ccc(NC(=O)c3ccc(-c4cccc([N+](=O)[O-])c4)o3)cc2)CC1 [CBK268602] | 108.831
44 | CCSc1nnc2c3c(sc2c1N)CC(C)(C)OC3 [CBK020374] | 56.3405
45 | Cc1cc(C)n(-c2ccc(CN3C(=O)NC4(CCCC4)C3=O)cc2)n1 [CBK305796] | 39.4813
46 | COc1ccc2[nH]c3c(c2c1)CCN(C=O)C31CCN(Cc2cccc(Cl)c2)C1 (stereo not drawn) [CBK040376] | 66.4229
47 | COc1cccc(CC2(C#N)CC2)c1 [CBK003907] | 100.65
48 | CCc1nc(CC(=O)N2CCOC(c3ccc(F)cc3)C2)cs1 (stereo not drawn) [CBK304083] | 69.6936
49 | Cc1nn(CCC#N)c(C)c1[C@@H]1C=C[C@@H](NC(=O)Nc2ccc(Cl)cc2)C1 [CBK288803] | 67.2798
50 | O=C(Nc1sc2c(c1CN1CCCCCC1)CCCC2)c1ccccc1 [CBK261811] | 93.0387
51 | O=c1cc(N2CCN(c3ccccc3)CC2)[nH]c(=O)n1-c1ccccc1Cl [CBK287506] | 126.243
